Assay results: publication PMC5893904
Results are given in words; binding and its absence hold for the method and conditions named. Some entries that bind do so weakly or less than the wild type. Sequences can lack the tags named with a protein.

T1: AtFdC1 (ferredoxin C 1), yeast two-hybrid bait fused with the binding domain (Arabidopsis thaliana) (UniProt O23344)
T1 sequence: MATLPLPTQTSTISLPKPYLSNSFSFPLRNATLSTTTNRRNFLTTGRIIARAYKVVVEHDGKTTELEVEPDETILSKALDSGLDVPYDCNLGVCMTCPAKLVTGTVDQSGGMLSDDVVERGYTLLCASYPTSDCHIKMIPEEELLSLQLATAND

T2: FdC1NC, FdC1 with truncated C-terminus (1-145a.a.), yeast two-hybrid bait (Arabidopsis thaliana) (UniProt O23344)
T2 sequence: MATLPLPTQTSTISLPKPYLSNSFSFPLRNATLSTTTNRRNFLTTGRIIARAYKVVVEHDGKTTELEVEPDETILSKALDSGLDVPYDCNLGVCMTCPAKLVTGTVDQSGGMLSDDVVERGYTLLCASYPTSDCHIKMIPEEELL

B1: NdhS (NADH dehydrogenase-like complex S), yeast two-hybrid prey fused with the active-domain (protein, UniProt Q9T0A4 1-250)
chain: MATSSITIPTIRTPIHRSKFLGQTHQFSTVNRSVFPPPKQQSKLYQVKAMGKFNLWEVMGGRGLCNGEKGIEKELQRNIEDEQETSKAENNETERESDDSNLSFKVPEDGFEKEMMGLTGGFPGGEKGLKTFIEKNPPPPPPPPPAKQGSDASAVATDKKPKAPKLPLLMPGMIAIVKNQNSPYHMYCGIVQRITDGKAGVLFEGGNWDRLITFRLEELERREKGPPGKNPKSCILEPLIEQMQKEEAAP
B2: LeafFNR1 (leaf-type ferredoxin-NADP+ oxidoreductase 1), yeast two-hybrid prey fused with the active-domain (enzyme, UniProt Q9FKW6 1-360)
chain: MAAAISAAVSLPSSKSSSLLTKISSVSPQRIFLKKSTVCYRRVVSVKAQVTTDTTEAPPVKVVKESKKQEEGIVVNKFKPKNPYTGRCLLNTKITGDDAPGETWHIVFTTEGEVPYREGQSIGVIPEGIDKNGKPHKLRLYSIASSAIGDFGDSKTVSLCVKRLVYTNDGGEIVKGVCSNFLCDLKPGDEAKITGPVGKEMLMPKDPNATIIMLGTGTGIAPFRSFLWKMFFEEHEDYKFNGLAWLFLGVPTSSSLLYKEEFEKMKEKNPDNFRLDFAVSREQTNEKGEKMYIQTRMAEYAEELWELLKKDNTFVYMCGLKGMEKGIDDIMVSLAAKDGIDWLEYKKQLKRSEQWNVEVY
B3: LeafFNR2 (leaf-type ferredoxin-NADP+ oxidoreductase 2), yeast two-hybrid prey fused with the active-domain (enzyme, UniProt Q8W493 1-369)
chain: MATTMNAAVSLTSSNSSSFPATSCAIAPERIRFTKGAFYYKSNNVVTGKRVFSIKAQITTETDTPTPAKKVEKVSKKNEEGVIVNRYRPKEPYTGKCLLNTKITADDAPGETWHMVFSHQGEIPYREGQSVGVIADGIDKNGKPHKVRLYSIASSALGDLGNSETVSLCVKRLVYTNDQGETVKGVCSNFLCDLAPGSDVKLTGPVGKEMLMPKDPNATVIMLATGTGIAPFRSFLWKMFFEKHDDYKFNGLAWLFLGVPTTSSLLYQEEFDKMKAKAPENFRVDYAISREQANDKGEKMYIQTRMAQYAAELWELLKKDNTFVYMCGLKGMEKGIDDIMVSLAANDGIDWFDYKKQLKKAEQWNVEVY
B4: RootFNR1 (root-type ferredoxin-NADP+ oxidoreductase 1), yeast two-hybrid prey fused with the active-domain (enzyme, UniProt Q9M0V6 1-378)
chain: MALSTTPSQMSVALPTRIDGSSRSMIKVQSISFTDKSWGPPLLRLDSKSRSLGVKKRSTICMSLQQSSKSKVLVTPLELEDPKETPLNLFRPKEPYTATIVSVERIVGPQAPGETCHIVIDHDGNVPYWEGQSYGVIPPGENPKKPGAPHNVRLYSIASTRYGDSFDGKTASLCVRRAIYYDPETGKEDPSKAGVCSNFLCNAKPGDKVKITGPSGKVMLLPEDDPKATHIMIATGTGVAPYRGYLRRMFMENVPNFKFDGLAWLFLGVANSDSLLYDEEFAGYRKDYPENFRYDKALSREEKNKKGGKMYVQDKIEEYSDEIFKLLDNGAHIYFCGLKGMMPGIQDTLKRVAEERGESWEQKLTQLRKNKQWHVEVY
B5: RootFNR2 (root-type ferredoxin-NADP+ oxidoreductase 2), yeast two-hybrid prey fused with the active-domain (enzyme, UniProt Q9S9P8 1-382)
chain: MSHSAVSQAGAVSVSIENQRSLRRSVFKQNNSISFNSKSWSSSLALNQKTTSIRDGKRYPSTTICMSVQQTSSSKVTVSPIELEDPKDPPLNLYKPKESYTAKIVSVERVVGPKAPGETCHIVIDHDGNLPYWEGQSYGVIPPGENPKKPGAPHNVRLYSIASTRYGDFFDGKTASLCVRRAVYYDPETGKEDPSKNGVCSNFLCDSKPGDKIQITGPSGKVMLLPESDPNATHIMIATGTGVAPYRGYLRRMFMENVPNKTFSGLAWLFLGVANTDSLLYDEEFTKYLKDHPDNFRFDKALSREEKNKKGGKMYVQDKIEEYSDEIFKLLDNGAHIYFCGLKGMMPGIQDTLKRVAEERGESWDLKLSQLRKNKQWHVEVY

These binders were tested against T1, AtFdC1 (ferredoxin C 1), yeast two-hybrid bait fused with the binding domain (Arabidopsis thaliana) (assay: two-hybrid; Clontech Matchmaker GAL4 system, gold yeast strain; Fds, FdC1 and FdC1NC fused with the binding domain (BD, bait), candidate proteins fused with the active-domain (AD, prey); growth on DDO, TDO and QDO dropout media, 28°C).

| binding | Binder |
| --- | --- |
| binds | B1 |
| no binding | B2 |
| no binding | B3 |
| no binding | B4 |
| no binding | B5 |

The binders below were run against T2, FdC1NC, FdC1 with truncated C-terminus (1-145a.a.), yeast two-hybrid bait (Arabidopsis thaliana) in the same assay as above.

| binding | Binder |
| --- | --- |
| no binding | B1 |
